Drawing on PMC5974363, this text covers binding for five molecules.

By UniProt entry, the sequences of proteins in these tests, tags left out.
UniProt Q9R0A0: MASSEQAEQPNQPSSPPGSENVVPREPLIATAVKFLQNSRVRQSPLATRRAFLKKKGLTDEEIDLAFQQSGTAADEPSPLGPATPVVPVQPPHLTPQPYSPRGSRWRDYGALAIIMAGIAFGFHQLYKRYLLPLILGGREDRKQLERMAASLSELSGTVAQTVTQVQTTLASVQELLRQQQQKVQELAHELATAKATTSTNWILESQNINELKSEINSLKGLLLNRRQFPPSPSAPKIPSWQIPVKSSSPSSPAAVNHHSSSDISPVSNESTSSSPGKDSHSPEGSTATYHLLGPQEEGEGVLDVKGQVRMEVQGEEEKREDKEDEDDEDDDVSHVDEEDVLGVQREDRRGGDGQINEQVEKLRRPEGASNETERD
UniProt P70168: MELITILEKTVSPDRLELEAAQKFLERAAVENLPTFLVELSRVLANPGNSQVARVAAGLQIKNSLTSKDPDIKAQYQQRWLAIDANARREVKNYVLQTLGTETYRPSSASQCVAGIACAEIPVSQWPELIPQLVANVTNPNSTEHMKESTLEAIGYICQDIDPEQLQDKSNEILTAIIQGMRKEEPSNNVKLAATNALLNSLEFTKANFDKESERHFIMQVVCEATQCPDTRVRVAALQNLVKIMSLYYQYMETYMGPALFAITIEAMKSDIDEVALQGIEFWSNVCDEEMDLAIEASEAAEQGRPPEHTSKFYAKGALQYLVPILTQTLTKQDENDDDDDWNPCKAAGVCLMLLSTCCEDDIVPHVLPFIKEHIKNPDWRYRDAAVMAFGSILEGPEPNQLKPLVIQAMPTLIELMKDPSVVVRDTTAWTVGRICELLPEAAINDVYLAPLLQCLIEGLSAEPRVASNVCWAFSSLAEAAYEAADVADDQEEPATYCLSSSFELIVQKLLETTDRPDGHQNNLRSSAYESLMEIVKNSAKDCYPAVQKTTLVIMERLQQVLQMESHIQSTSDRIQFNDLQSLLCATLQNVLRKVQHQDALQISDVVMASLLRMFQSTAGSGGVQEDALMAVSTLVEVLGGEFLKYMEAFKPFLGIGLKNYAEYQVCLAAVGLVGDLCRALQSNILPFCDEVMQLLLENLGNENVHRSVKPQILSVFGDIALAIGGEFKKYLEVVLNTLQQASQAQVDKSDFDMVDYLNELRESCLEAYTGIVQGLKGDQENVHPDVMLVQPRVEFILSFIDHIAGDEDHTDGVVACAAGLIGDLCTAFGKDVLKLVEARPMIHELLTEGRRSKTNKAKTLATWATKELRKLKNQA

The target in assay [1] is T1, Flag-S100A11 (1-41) (mouse) (UniProt P50543).
T1 sequence: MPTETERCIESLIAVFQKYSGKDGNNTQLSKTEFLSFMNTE
Put plainly: co-IP; lysates of N2a cells transfected with Flag-S100A11 or GFP-ANXA1 constructs, partner endogenous; anti-Flag, anti-GFP or anti-ANXA1 antibody overnight at 4 °C, Protein A/G plus agarose, western blot. For orientation: Immunoblotting shows a protein as a band on a membrane.

The target in assay [2] is T2, Flag-S100A11 (42–98) (mouse) (UniProt P50543).
T2 sequence: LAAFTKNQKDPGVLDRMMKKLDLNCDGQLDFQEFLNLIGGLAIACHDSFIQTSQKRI
Described as above.

Assay [3] has as its target T3, Flag-S100A11 (WT) (mouse) (UniProt P50543).
T3 sequence: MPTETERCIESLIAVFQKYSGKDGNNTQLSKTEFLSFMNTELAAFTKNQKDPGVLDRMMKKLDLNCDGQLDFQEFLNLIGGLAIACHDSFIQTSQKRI
The assay is described as above.

Assay [4] has as its target T4, annexin A1 (mouse (endogenous in N2a)) (UniProt P10107).
T4 sequence: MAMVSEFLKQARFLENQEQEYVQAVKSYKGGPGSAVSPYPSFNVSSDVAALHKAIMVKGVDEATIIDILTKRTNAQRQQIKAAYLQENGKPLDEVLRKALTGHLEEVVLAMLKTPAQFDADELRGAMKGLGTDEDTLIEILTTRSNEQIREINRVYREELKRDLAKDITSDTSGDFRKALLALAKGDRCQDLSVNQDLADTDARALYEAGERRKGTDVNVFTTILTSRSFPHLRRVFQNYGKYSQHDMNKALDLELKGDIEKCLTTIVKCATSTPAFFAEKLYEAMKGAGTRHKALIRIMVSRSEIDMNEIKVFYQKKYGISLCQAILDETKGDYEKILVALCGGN
Described as above.

Assay [5] concerns the target Peroxisome biogenesis protein 14 (mouse (endogenous in N2a)) (UniProt Q9R0A0). As to the kind of experiment: co-IP; endogenous proteins in N2a cell lysates, with or without OGD/R (OGD 1 h, reoxygenation 24 h); lysate diluted fourfold in IP buffer, antibody overnight at 4 °C, Protein A/G plus agarose 4 h, five washes, western blot.
Assay [6] concerns the target T4, annexin A1 (mouse (endogenous in N2a)). The assay is described as above.

No constants are given. Whether binding was seen depends on the method and setting. In cells and extracts the contact can be indirect. Some binding calls cover weakened binding; strength is not graded here. For some assays here: Where a sequence is shown, tags or fusion partners need not be part of it.

Turning to importin β (from UniProt P70168 1-876), the binding result in assay [1], in assay [2] and in assay [3] was “no binding” each time.

B1: Flag-S100A11 (1-41) (domain or fragment, UniProt P50543 1-41)
chain: MPTETERCIESLIAVFQKYSGKDGNNTQLSKTEFLSFMNTE
Take B1: in assay [4], the binding result is “no binding”.

B2: S100A11 (protein, UniProt P50543 1-98)
chain: MPTETERCIESLIAVFQKYSGKDGNNTQLSKTEFLSFMNTELAAFTKNQKDPGVLDRMMKKLDLNCDGQLDFQEFLNLIGGLAIACHDSFIQTSQKRI
On to B2, for which the binding result in assay [5] and in assay [6] was “binds” each time.

B3: Flag-S100A11 (WT) (protein, UniProt P50543 1-98)
chain: MPTETERCIESLIAVFQKYSGKDGNNTQLSKTEFLSFMNTELAAFTKNQKDPGVLDRMMKKLDLNCDGQLDFQEFLNLIGGLAIACHDSFIQTSQKRI
In the case of B3, the binding result in assay [4] is given as “binds”.

B4: Flag-S100A11 (42–98) (domain or fragment, UniProt P50543 42-98)
chain: LAAFTKNQKDPGVLDRMMKKLDLNCDGQLDFQEFLNLIGGLAIACHDSFIQTSQKRI
Take B4: the binding entry in assay [4] is “binds”.
